# ± gives the standard deviation. The list shows a part of the results, in another mix than the full data.
# Test system: MIWI (PIWIL1) piRISC loaded with L1MC piRNA (30 nt)
# Experiment: pre-steady-state target cleavage rate (min^-1); MIWI and MILI are mouse PIWI proteins and EfPiwi is from a freshwater sponge; tags in brackets are library labels; higher = faster piRNA-guided slicing of the target
# Conditions: guide: L1MC piRNA 5'p-UAACUAAAUACUAUGCAAGCUGUAGGUCCU; auxiliary factor: 500 nM mouse GTSF1
# Procedure, shortened: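 Three pooled Cleave-'n-Seq trials supplied the data, with k3 capped at 0.0001 min^-1. In each, […] transcribed, DNA-blocked target RNA library and 1 nM active affinity-purified piRISC with one synthetic guide reacted in HEPES–potassium acetate buffer at 33 °C for 0–8 or 0–960 min, with or without 500 nM GTSF1 partner protein. Uncleaved targets were sequenced and normalised to depth and to weakly complementary targets. A burst-and-steady-state fit provided the pre-steady-state cleavage rate.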
# 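Also: 1 nM active piRISC with 0.1 nM target library at 33 °C single turnover.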
row,Sequence,pre-steady-state target cleavage rate
1,UCCACCUUGUGCUUGCAUAGUAUUUAGUUA,0.492 ± 0.03
2,UCCUCCUACAGGUUGCAUAGAAUUUAGUUA,0.316 ± 0.03
3,UGGACCUACAGCUUGUCAUAGUAUUUAGUUA,0.706 ± 0.1
4,UCCUGGAACAGCUAGCAUAGUUUUUAGUUA,0.251 ± 0.021
5,ACGACCUACAGCUUGCAUAGUAUUUAGAUA,0.62 ± 0.044
6,UCGACCUACAGCUUGCAUUCUAUUUAGUAA,0.184 ± 0.04
7,UCCUGGUACAGCUUGCAUAGUAUUUAGUAA,0.629 ± 0.056
8,UCCUCCUACUGCUUGCAUAGUAUUUACUUA,0.203 ± 0.019
9,UCCUGGAUGUCGAACGUAUGUAAUUUAGUUA,< 0.0001
10,UCCUGGAUGUCCUUGCAUAGUAUUUUGUUA,0.0341 ± 0.0067
11,UCCUGGAUGAGCUUGCAUAGUAUUUCAGUUA,0.359 ± 0.051
12,UCCACCUACAGCAUGCAUUGUAUUUAGUUA,0.648 ± 0.023
13,UCCUGGAUGUGUUGCAUAGUAUUUAGUUA,0.108 ± 0.019
14,UCCUGGAACAGCAUGCUUAGUAUUUAGUUA,0.701 ± 0.059
15,UCCUGCUACACCAUGCAUAGUAUUUAGUUA,0.783 ± 0.035
16,UCCUGGAACAGCUUGCAUACUAAUUAGUUA,0.139 ± 0.013
17,UCCUCCUACAGCUUGCAUUCUAUUUAGUUA,0.272 ± 0.024
18,UCGACCUUCAGCUUGCUUAGUAUUUAGUUA,1.33 ± 0.05
19,UCCACCUACAGCUUGCAUAGUAUAUAGUAA,0.304 ± 0.048
20,AGGACGUACAGCUUGCAUAGUAUUUACAAA,0.214 ± 0.049

row,Sequence,pre-steady-state target cleavage rate
1,UCCUGGAACAGCUUGCAUUGUAUUUAGUAA,0.443 ± 0.033
2,UCCUGCUACAGCUAUGCAUAGUAUUUAGUUA,0.642 ± 0.045
3,UCGACCUACACGAUGCAUAGUAUUUAGUAA,0.732 ± 0.059
4,ACGACCUACAGCUUGCAUAGUAUUUUCAAA,0.618 ± 0.067
5,UCCUGGAUGAGACUUGCAUAGUAUUUAGUUA,0.22 ± 0.023
6,UCCUGGUACAGCUUGCAUUGUAUUUACUUA,0.0968 ± 0.025
7,UCCUGGAAGAGCUUGCUUAGUAUUUAGUUA,0.761 ± 0.051
8,UGGACCUUCAGCUUGCAUAGUAUUUAGAAA,0.39 ± 0.038
9,UCCUCCUAUCAGCUUGCAUAGUAUUUAGUUA,1.49 ± 0.072
10,UCCUGGAUCAGCUUGCAUAGAAUAUAGUUA,0.0634 ± 0.014
11,UCCUGGAUCAGCUUGCAUAGUCAUUUAGUUA,0.0087 ± 0.0047
12,UGGACCUACAGGUUGCAUAGUAUUUACUUA,0.124 ± 0.018
13,UCCUCCUACAGCUAGCAAAGUAUUUAGUUA,0.731 ± 0.027
14,UCCUGGAUCAGCUUCAUAGUAUUUAGUUA,0.954 ± 0.056
15,UCCUGCUACAGCUUGCAUAGUAAUUAGAUA,0.285 ± 0.054
16,UGGAGCUACAGCUUGCAUAGUAUUUACUUA,0.319 ± 0.033
17,UGGACCUUCAGCUUGCAUUGUAUUUAGUUA,0.904 ± 0.04
18,UCCUGGUACUGCUAGCAUAGUAUUUAGUUA,0.462 ± 0.044
19,UCCUCCUUCAGCUUGCAUAGUAUUUUGUUA,0.637 ± 0.047
20,UCGACCUACAGCUUGCAUACUAAUUAGUUA,0.208 ± 0.018

# Same assay, conditions: guide: L1MC piRNA 5'p-UAACUAAAUACUAUGCAAGCUGUAGGUCCU; auxiliary factor: none (no GTSF1)
row,Sequence,pre-steady-state target cleavage rate
1,UCCACCUUGUGCUUGCAUAGUAUUUAGUUA,0.0325 ± 0.0064
2,UCCUCCUACAGGUUGCAUAGAAUUUAGUUA,0.0101 ± 0.0033
3,UGGACCUACAGCUUGUCAUAGUAUUUAGUUA,0.00373 ± 0.0033
4,UCCUGGAACAGCUAGCAUAGUUUUUAGUUA,0.0141 ± 0.0041
5,ACGACCUACAGCUUGCAUAGUAUUUAGAUA,0.0521 ± 0.011
6,UCGACCUACAGCUUGCAUUCUAUUUAGUAA,0.00296 ± 0.0022
7,UCCUGGUACAGCUUGCAUAGUAUUUAGUAA,0.036 ± 0.0067
8,UCCUCCUACUGCUUGCAUAGUAUUUACUUA,0.0222 ± 0.0026
9,UCCUGGAUGUCGAACGUAUGUAAUUUAGUUA,< 0.0001
10,UCCUGGAUGUCCUUGCAUAGUAUUUUGUUA,0.00633 ± 0.0022
11,UCCUGGAUGAGCUUGCAUAGUAUUUCAGUUA,0.0143 ± 0.0037
12,UCCACCUACAGCAUGCAUUGUAUUUAGUUA,0.00892 ± 0.0024
13,UCCUGGAUGUGUUGCAUAGUAUUUAGUUA,0.00732 ± 0.0033
14,UCCUGGAACAGCAUGCUUAGUAUUUAGUUA,0.0129 ± 0.0038
15,UCCUGCUACACCAUGCAUAGUAUUUAGUUA,0.00793 ± 0.002
16,UCCUGGAACAGCUUGCAUACUAAUUAGUUA,0.00603 ± 0.0023
17,UCCUCCUACAGCUUGCAUUCUAUUUAGUUA,0.00656 ± 0.0024
18,UCGACCUUCAGCUUGCUUAGUAUUUAGUUA,0.0363 ± 0.0088
19,UCCACCUACAGCUUGCAUAGUAUAUAGUAA,0.00507 ± 0.0024
20,AGGACGUACAGCUUGCAUAGUAUUUACAAA,0.00641 ± 0.0022

row,Sequence,pre-steady-state target cleavage rate
1,UCCUGGAACAGCUUGCAUUGUAUUUAGUAA,0.0205 ± 0.0062
2,UCCUGCUACAGCUAUGCAUAGUAUUUAGUUA,0.0116 ± 0.0033
3,UCGACCUACACGAUGCAUAGUAUUUAGUAA,0.00229 ± 0.0023
4,ACGACCUACAGCUUGCAUAGUAUUUUCAAA,0.00505 ± 0.004
5,UCCUGGAUGAGACUUGCAUAGUAUUUAGUUA,0.00787 ± 0.0023
6,UCCUGGUACAGCUUGCAUUGUAUUUACUUA,0.0136 ± 0.0043
7,UCCUGGAAGAGCUUGCUUAGUAUUUAGUUA,0.0227 ± 0.0089
8,UGGACCUUCAGCUUGCAUAGUAUUUAGAAA,0.0166 ± 0.005
9,UCCUCCUAUCAGCUUGCAUAGUAUUUAGUUA,0.0492 ± 0.011
10,UCCUGGAUCAGCUUGCAUAGAAUAUAGUUA,0.00907 ± 0.0046
11,UCCUGGAUCAGCUUGCAUAGUCAUUUAGUUA,0.00533 ± 0.0025
12,UGGACCUACAGGUUGCAUAGUAUUUACUUA,0.0241 ± 0.0041
13,UCCUCCUACAGCUAGCAAAGUAUUUAGUUA,0.00626 ± 0.0022
14,UCCUGGAUCAGCUUCAUAGUAUUUAGUUA,0.00538 ± 0.002
15,UCCUGCUACAGCUUGCAUAGUAAUUAGAUA,0.00545 ± 0.0023
16,UGGAGCUACAGCUUGCAUAGUAUUUACUUA,0.0321 ± 0.0047
17,UGGACCUUCAGCUUGCAUUGUAUUUAGUUA,0.037 ± 0.0098
18,UCCUGGUACUGCUAGCAUAGUAUUUAGUUA,0.00832 ± 0.0021
19,UCCUCCUUCAGCUUGCAUAGUAUUUUGUUA,0.0216 ± 0.004
20,UCGACCUACAGCUUGCAUACUAAUUAGUUA,0.00836 ± 0.0022

# — the supplement of paper PMC10338343
